# Data reported in PubChem BioAssay (NCATS).
# The list shows a part of the results. These are further read-outs of the screen, such as a control signal, another cell line or another target. No call is given for them. Compounds called inactive in the main read-out are mostly missing here. Potencies come from curve fits of mixed quality, noted in brackets.
# Assay: qHTS Assay for Lipid Storage Modulators (AID 1519)
# Conditions: Drosophila S3 cells, BODIPY lipid droplet/cell ratio, laser cytometry; measured here: lipid (BODIPY) channel AC50; cells loaded with oleic acid
# How it was run: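 Cells seeded at 5,000 per well were treated with compounds over a concentration series and loaded with oleic acid (400 uM, as added). Lipid droplet fluorescence (488 nm excitation, 500-530 nm channel) was read by laser-scanning cytometry and normalized to 20 uM Triacsin C.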
# Tags describe the fitted curve by direction and shape.
row,Compound,AC50
1,COCCn1c(=O)c(-c2cn(C)c3ccccc23)nc2cnc(Oc3ccccc3)nc21,"0.224 µM [rising, partial curve]"
2,Cc1cnc(CNc2ncnc3ccc(-c4ccc(N(C)C)cc4)cc23)cn1,"0.501 µM [rising, full curve, poor fit]"
3,COc1ccc(Oc2ncc3nc(C)c(=O)n(-c4ccc(OC)cc4)c3n2)cc1,"1.58 µM [rising, partial curve]"
4,CCOC(=O)C1=C(O)C(=O)N(Cc2ccccc2)C1,"15.8 µM [rising, partial curve, poor fit]"
5,N=C(N)SCCc1ccc(OCc2ccc([N+](=O)[O-])cc2)cc1,"11.2 µM [rising, partial curve]"
6,CNc1nc(-c2c(C)noc2C)nc2ccccc12,"0.141 µM [rising, partial curve]"
7,CN1CCN(c2ncc3nc(-c4cn(C)c5ccccc45)c(=O)n(-c4ccccc4)c3n2)CC1,"0.708 µM [rising, full curve, poor fit]"
8,COc1cccc(Cn2c(=O)c(-c3cccs3)nc3cnc(N4CCOCC4)nc32)c1,"2.82 µM [rising, partial curve, poor fit]"
9,CN(Cc1ccco1)c1ncncc1-c1cccnc1,"0.282 µM [rising, full curve, poor fit]"
10,CNC(=O)[C@H]1O[C@H](n2cnc3c(NCc4cccc(I)c4)ncnc32)[C@@H](O)[C@@H]1O,"15.8 µM [rising, partial curve, poor fit]"
11,CN(C)C/C=C(\c1ccc(Br)cc1)c1cccnc1,"10 µM [rising, partial curve]"
